# Test results reported in the supplement of paper PMC8728848.
# Some of the results follow.
# B1: HPA (Helix pomatia), Q2F1K8 (protein)
# chain: MQAFYSGLLLLCVVAFAAAQRVQSGKIDCGNDAGWAKVPSDDPGRDNTRELAKNITFASPYCRPPVVLLSITQLDVEQSQNLRVIARLYSVSPTGFKASCYTWHNTKVYSMSISWISIENY
# Key:
# Test in all cases: glycan array binding signal (z-score within array); higher = stronger binding
# Details in all cases: glycan notation: IUPAC condensed, linker removed
# [1] = biological target: Neu5Ac(a2-6)Gal(b1-4)GlcNAc(b1-2)Man(a1-6)[Gal(b1-4)GlcNAc(b1-2)Man(a1-3)]Man(b1-4)GlcNAc(b1-4)GlcNAc
# Method in brief: (§1)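 Glycan array data came from 3228 arrays in the Consortium for Functional Glycomics database, and only arrays with an available protein sequence were kept. Glycan names were put into IUPAC-condensed notation, and columns mapping to the same glycan were averaged. The binding signal is a within-array Z-score, averaged across arrays of one protein sequence run at different concentrations or buffers and across linkers. A negative Z-score can be read as non-binding.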
# [2] = biological target: Neu5Ac(a2-6)Gal(b1-4)GlcNAc(b1-2)Man(a1-6)[GlcNAc(b1-2)Man(a1-3)]Man(b1-4)GlcNAc(b1-4)GlcNAc
# Method in brief: as §1
# [3] = biological target: Neu5Ac(a2-6)Gal(b1-4)GlcNAc(b1-2)Man(a1-6)[Man(a1-3)]Man(b1-4)GlcNAc(b1-4)GlcNAc
# Method in brief: as §1
# [4] = biological target: Neu5Ac(a2-6)Gal(b1-4)GlcNAc(b1-2)[Neu5Ac(a2-6)Gal(b1-4)GlcNAc(b1-4)]Man(a1-3)[GlcNAc(b1-4)][Neu5Ac(a2-6)Gal(b1-4)GlcNAc(b1-2)[Neu5Ac(a2-6)Gal(b1-4)GlcNAc(b1-6)]Man(a1-6)]Man(b1-4)GlcNAc(b1-4)GlcNAc
# Method in brief: as §1
# [5] = biological target: Neu5Ac(a2-6)Gal(b1-4)GlcNAc(b1-2)[Neu5Ac(a2-6)Gal(b1-4)GlcNAc(b1-4)]Man(a1-3)[GlcNAc(b1-4)][Neu5Ac(a2-6)Gal(b1-4)GlcNAc(b1-4)Man(a1-6)]Man(b1-4)GlcNAc(b1-4)GlcNAc
# Method in brief: as §1
# [6] = biological target: Neu5Ac(a2-6)Gal(b1-4)GlcNAc(b1-2)[Neu5Ac(a2-6)Gal(b1-4)GlcNAc(b1-6)]Man(a1-6)[Neu5Ac(a2-6)Gal(b1-4)GlcNAc(b1-2)Man(a1-3)][GlcNAc(b1-4)]Man(b1-4)GlcNAc(b1-4)GlcNAc
# Method in brief: as §1
# [7] = biological target: Neu5Ac(a2-6)Gal(b1-4)GlcNAc(b1-3)Gal(b1-3)GlcNAc
# Method in brief: as §1
# [8] = biological target: Neu5Ac(a2-6)Gal(b1-4)GlcNAc(b1-3)Gal(b1-4)GlcNAc
# Method in brief: as §1
# [9] = biological target: Neu5Ac(a2-6)Gal(b1-4)GlcNAc(b1-3)Gal(b1-4)GlcNAc(b1-2)Man(a1-3)[Neu5Ac(a2-6)Gal(b1-4)GlcNAc(b1-3)Gal(b1-4)GlcNAc(b1-2)Man(a1-6)]GalNAc
# Method in brief: as §1
# [10] = biological target: Neu5Ac(a2-6)Gal(b1-4)GlcNAc(b1-3)Gal(b1-4)GlcNAc(b1-3)Gal(b1-4)GlcNAc
# Method in brief: as §1
# [11] = biological target: Neu5Ac(a2-6)Gal(b1-4)GlcNAc(b1-3)Gal(b1-4)GlcNAc(b1-3)Gal(b1-4)GlcNAc(b1-2)Man(a1-3)[Neu5Ac(a2-6)Gal(b1-4)GlcNAc(b1-3)Gal(b1-4)GlcNAc(b1-3)Gal(b1-4)GlcNAc(b1-2)Man(a1-6)]GalNAc
# Method in brief: as §1
# [12] = biological target: Neu5Ac(a2-6)Gal(b1-4)GlcNAc(b1-3)Gal(b1-4)GlcNAc(b1-3)GalNAc
# Method in brief: as §1
# [13] = biological target: Neu5Ac(a2-6)Gal(b1-4)GlcNAc(b1-3)Gal(b1-4)GlcNAc(b1-3)[Neu5Ac(a2-6)Gal(b1-4)GlcNAc(b1-3)Gal(b1-4)GlcNAc(b1-6)]GalNAc
# Method in brief: as §1
# [14] = biological target: Neu5Ac(a2-6)Gal(b1-4)GlcNAc(b1-3)Gal(b1-4)GlcNAc(b1-6)[Gal(b1-3)]GalNAc
# Method in brief: as §1
# [15] = biological target: Neu5Ac(a2-6)Gal(b1-4)GlcNAc(b1-3)Gal(b1-4)[Fuc(a1-3)]GlcNAc(b1-3)Gal(b1-4)[Fuc(a1-3)]GlcNAc
# Method in brief: as §1
# [16] = biological target: Neu5Ac(a2-6)Gal(b1-4)GlcNAc(b1-3)GalNAc
# Method in brief: as §1
# [17] = biological target: Neu5Ac(a2-6)Gal(b1-4)GlcNAc(b1-3)[Neu5Ac(a2-6)Gal(b1-4)GlcNAc(b1-6)]GalNAc
# Method in brief: as §1
# [18] = biological target: Neu5Ac(a2-6)Gal(b1-4)GlcNAc(b1-6)GalNAc
# Method in brief: as §1
# [19] = biological target: Neu5Ac(a2-6)Gal(b1-4)GlcNAc(b1-6)[Gal(b1-3)GlcNAc(b1-3)]Gal(b1-4)Glc
# Method in brief: as §1
# [20] = biological target: Neu5Ac(a2-6)Gal(b1-4)GlcNAc(b1-6)[Gal(b1-3)]GalNAc
# Method in brief: as §1
# [21] = biological target: Neu5Ac(a2-6)Gal(b1-4)GlcNAc6S
# Method in brief: as §1
# Neu5Ac(a2-6)GalNAc = biological target: Neu5Ac(a2-6)GalNAc
# Method in brief: as §1
# [22] = biological target: Neu5Ac(a2-6)GalNAc(b1-4)GlcNAc
# Method in brief: as §1
# [23] = biological target: Neu5Ac(a2-6)GalNAc(b1-4)GlcNAc6S
# Method in brief: as §1
# [24] = biological target: Neu5Ac(a2-6)GlcNAc(b1-4)GlcNAc
# Method in brief: as §1
# [25] = biological target: Neu5Ac(a2-6)GlcNAc(b1-4)GlcNAc(b1-4)GlcNAc
# Method in brief: as §1
# Neu5Ac(a2-8)Neu5Ac = biological target: Neu5Ac(a2-8)Neu5Ac
# Method in brief: as §1
# [26] = biological target: Neu5Ac(a2-8)Neu5Ac(a2-3)Gal(b1-3)GalNAc(b1-4)[Neu5Ac(a2-3)]Gal(b1-4)Glc
# Method in brief: as §1
# [27] = biological target: Neu5Ac(a2-8)Neu5Ac(a2-3)Gal(b1-3)GalNAc(b1-4)[Neu5Ac(a2-8)Neu5Ac(a2-3)]Gal(b1-4)Glc
# Method in brief: as §1
# [28] = biological target: Neu5Ac(a2-8)Neu5Ac(a2-3)Gal(b1-4)Glc
# Method in brief: as §1
# [29] = biological target: Neu5Ac(a2-8)Neu5Ac(a2-3)Gal(b1-4)GlcNAc
# Method in brief: as §1
# [30] = biological target: Neu5Ac(a2-8)Neu5Ac(a2-3)[Gal(b1-3)GalNAc(b1-4)]Gal(b1-4)Glc
# Method in brief: as §1
# [31] = biological target: Neu5Ac(a2-8)Neu5Ac(a2-3)[GalNAc(b1-4)]Gal(b1-4)Glc
# Method in brief: as §1
# [32] = biological target: Neu5Ac(a2-8)Neu5Ac(a2-8)Neu5Ac
# Method in brief: as §1
# [33] = biological target: Neu5Ac(a2-8)Neu5Ac(a2-8)Neu5Ac(a2-3)Gal(b1-4)Glc
# Method in brief: as §1
# [34] = biological target: Neu5Ac(a2-8)Neu5Ac(a2-8)Neu5Ac(a2-3)[Gal(b1-3)GalNAc(b1-4)]Gal(b1-4)Glc
# Method in brief: as §1
# [35] = biological target: Neu5Ac(a2-8)Neu5Ac(a2-8)Neu5Ac(a2-3)[GalNAc(b1-4)]Gal(b1-4)Glc
# Method in brief: as §1
# [36] = biological target: Neu5Ac(a2-8)Neu5Ac(a2-8)Neu5Ac(a2-8)Neu5Ac(a2-3)[GalNAc(b1-4)]Gal(b1-4)Glc
# Method in brief: as §1
# [37] = biological target: Neu5Ac(a2-8)Neu5Gc(a2-3)Gal(b1-4)GlcNAc
# Method in brief: as §1
# Neu5Ac(b1-6)GalNAc = biological target: Neu5Ac(b1-6)GalNAc
# Method in brief: as §1
# [38] = biological target: Neu5Ac(b2-6)Gal(b1-4)GlcNAc
# Method in brief: as §1
# Neu5Ac(b2-6)GalNAc = biological target: Neu5Ac(b2-6)GalNAc
# Method in brief: as §1
# [39] = biological target: Neu5Ac9Ac(a2-3)Gal(b1-3)GlcNAc
# Method in brief: as §1
# [40] = biological target: Neu5Ac9Ac(a2-3)Gal(b1-4)GlcNAc
# Method in brief: as §1
# [41] = biological target: Neu5Ac9Ac(a2-6)Gal(b1-4)GlcNAc
# Method in brief: as §1
# [42] = biological target: Neu5Gc(a2-3)Gal(b1-3)GlcNAc
# Method in brief: as §1
# [43] = biological target: Neu5Gc(a2-3)Gal(b1-3)[Fuc(a1-4)]GlcNAc
# Method in brief: as §1
# Neu5Gc(a2-3)Gal(b1-4)Glc = biological target: Neu5Gc(a2-3)Gal(b1-4)Glc
# Method in brief: as §1
# [44] = biological target: Neu5Gc(a2-3)Gal(b1-4)GlcNAc
# Method in brief: as §1
# [45] = biological target: Neu5Gc(a2-3)Gal(b1-4)GlcNAc(b1-3)Gal(b1-4)GlcNAc(b1-2)Man(a1-3)[Neu5Gc(a2-3)Gal(b1-4)GlcNAc(b1-3)Gal(b1-4)GlcNAc(b1-2)Man(a1-6)]Man(b1-4)GlcNAc(b1-4)GlcNAc
# Method in brief: as §1
# [46] = biological target: Neu5Gc(a2-3)Gal(b1-4)[Fuc(a1-3)]GlcNAc
# Method in brief: as §1
# [47] = biological target: Neu5Gc(a2-6)Gal(b1-4)GlcNAc
# Method in brief: as §1
# Neu5Gc(a2-6)GalNAc = biological target: Neu5Gc(a2-6)GalNAc
# Method in brief: as §1
# [48] = biological target: Neu5Gc(a2-8)Neu5Ac(a2-3)Gal(b1-4)GlcNAc
# Method in brief: as §1
# [49] = biological target: Neu5Gc(a2-8)Neu5Gc(a2-3)Gal(b1-4)GlcNAc
# Method in brief: as §1
# [50] = biological target: Neu5Gc(a2-8)Neu5Gc(a2-3)Gal(b1-4)GlcNAc(b1-3)Gal(b1-4)GlcNAc
# Method in brief: as §1
# [51] = biological target: Neu5Gc(a2-8)Neu5Gc(a2-6)Gal(b1-4)GlcNAc
# Method in brief: as §1
# [52] = biological target: Neu5Gc(b2-6)Gal(b1-4)GlcNAc
# Method in brief: as §1
binder,measurement,setting,value
B1,glycan array binding signal (z-score),[1],1.23
same,glycan array binding signal (z-score),[2],-0.157
same,glycan array binding signal (z-score),[3],-0.235
same,glycan array binding signal (z-score),[4],-0.317
same,glycan array binding signal (z-score),[5],-0.129
same,glycan array binding signal (z-score),[6],-0.421
same,glycan array binding signal (z-score),[7],-0.349
same,glycan array binding signal (z-score),[8],-0.244
same,glycan array binding signal (z-score),[9],0.201
same,glycan array binding signal (z-score),[10],-0.189
same,glycan array binding signal (z-score),[11],0.579
same,glycan array binding signal (z-score),[12],-0.436
same,glycan array binding signal (z-score),[13],0.886
same,glycan array binding signal (z-score),[14],0.021
same,glycan array binding signal (z-score),[15],0.025
same,glycan array binding signal (z-score),[16],0.212
same,glycan array binding signal (z-score),[17],-0.378
same,glycan array binding signal (z-score),[18],-0.048
same,glycan array binding signal (z-score),[19],-0.287
same,glycan array binding signal (z-score),[20],0.096
same,glycan array binding signal (z-score),[21],-0.25
same,glycan array binding signal (z-score),Neu5Ac(a2-6)GalNAc,-0.29
same,glycan array binding signal (z-score),[22],-0.317
same,glycan array binding signal (z-score),[23],-0.275
same,glycan array binding signal (z-score),[24],-0.359
same,glycan array binding signal (z-score),[25],-0.317
same,glycan array binding signal (z-score),Neu5Ac(a2-8)Neu5Ac,-0.049
same,glycan array binding signal (z-score),[26],-0.419
same,glycan array binding signal (z-score),[27],-0.278
same,glycan array binding signal (z-score),[28],-0.365
same,glycan array binding signal (z-score),[29],-0.323
same,glycan array binding signal (z-score),[30],-0.115
same,glycan array binding signal (z-score),[31],0.211
same,glycan array binding signal (z-score),[32],-0.292
same,glycan array binding signal (z-score),[33],-0.323
same,glycan array binding signal (z-score),[34],0.091
same,glycan array binding signal (z-score),[35],0.209
same,glycan array binding signal (z-score),[36],0.038
same,glycan array binding signal (z-score),[37],-0.301
same,glycan array binding signal (z-score),Neu5Ac(b1-6)GalNAc,-0.304
same,glycan array binding signal (z-score),[38],-0.186
same,glycan array binding signal (z-score),Neu5Ac(b2-6)GalNAc,-0.411
same,glycan array binding signal (z-score),[39],-0.411
same,glycan array binding signal (z-score),[40],-0.237
same,glycan array binding signal (z-score),[41],-0.24
same,glycan array binding signal (z-score),[42],-0.196
same,glycan array binding signal (z-score),[43],-0.234
same,glycan array binding signal (z-score),Neu5Gc(a2-3)Gal(b1-4)Glc,-0.112
same,glycan array binding signal (z-score),[44],-0.191
same,glycan array binding signal (z-score),[45],-0.085
same,glycan array binding signal (z-score),[46],-0.212
same,glycan array binding signal (z-score),[47],-0.167
same,glycan array binding signal (z-score),Neu5Gc(a2-6)GalNAc,-0.334
same,glycan array binding signal (z-score),[48],-0.25
same,glycan array binding signal (z-score),[49],-0.34
same,glycan array binding signal (z-score),[50],-0.262
same,glycan array binding signal (z-score),[51],-0.288
same,glycan array binding signal (z-score),[52],-0.249
